Experimental data: PubChem BioAssay (NCI)
Several values for one entry are separate records, joined by “and”; a condition that tells them apart may be missing. Equal entries are not always repeated.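 Results reflect a 48-hour exposure of cells in 96-well plates to compound at five concentrations. At the GI50, growth is halved. TGI marks complete inhibition of growth.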 Square brackets hold non-standard residues; d marks the D form. Peptide text beside a SMILES is read from it. * marks the point of attachment. ξ: configuration not given here. NMeF = CN[C@@H](Cc1ccccc1)C(=O)O; NMeN = CN[C@@H](CC(N)=O)C(=O)O; NMeV = CN[C@H](C(=O)O)C(C)C; ξNMeV = CNC(C(=O)O)C(C)C; Boc = CC(C)(C)OC(=O)*; ξNMeA = CNC(C)C(=O)O; ξV = CC(C)C(N)C(=O)O

tested on: NCI-H322M lung; assay: NCI-60 cell line screen, 48 h

SMILES | GI50 | TGI
CC(C)CC(=O)[O-].N.N.N.N.N.[Co+3].[O-][Cl+3]([O-])([O-])[O-] | > 100 µM | > 100 µM
CN(C)C(=S)/N=c1\ss/c(=N\C(=S)N(C)C)n1C1CCCCC1 |  | > 100 µM
CC(=O)O[C@H]1C(=O)[C@@]2(C)[C@H]([C@H](OC(=O)C3CCCCC3)[C@]3(O)C[C@H](OC(=O)[C@H](O)[C@@H](NC(=O)OC(C)(C)C)c4ccccc4)C(C)=C1C3(C)C)[C@]1(OC(C)=O)CO[C@@H]1C[C@@H]2O |  | > 12.5 µM
COC(=O)C(C)N(C)C(=O)[C@H](CC(N)=O)N(C)C(=O)[C@@H]1CCCN1C(=O)[C@H](C(C)C)N(C)C(=O)C(C(C)C)N(C)C(=O)[C@H](Cc1ccccc1)N(C)C(=O)C(NC(=O)OC(C)(C)C)C(C)C (some centres undefined) (Boc-[ξV][NMeF][ξNMeV][NMeV]P[NMeN][ξNMeA]-OMe) | 17.5 µM | 50 µM and 31.2 µM
CO[C@H]1C[C@@H]2CC[C@@H](C)[C@@](O)(O2)C(=O)C(=O)N2CCCC[C@H]2C(=O)O[C@H]([C@H](C)C[C@@H]2CC[C@@H](O)[C@H](OC)C2)CC(=O)[C@H](C)C=C(C)[C@@H](O)[C@@H](OC)C(=O)[C@H](C)C[C@H](C)/C=C/C=C/C=C1C |  | 24.2 µM and 28.4 µM and 225 µM
CNC[C@@H](NC(=O)c1ccc(-c2nc([C@H]3CC[C@H](O)[C@@H](F)C3)cnc2N)cc1F)c1cc(F)cc(Br)c1 | 17.8 µM | 39.4 µM
N#CC(C#N)=C1/C(=C/C=C/C=C/C=C/c2ccc(N3CCCCC3)s2)S(=O)(=O)c2ccccc21 |  | > 100 µM
S=C1Cc2cc3ccccc3nc2-c2ccccc2N1 |  | 46.9 µM
CC12C=C[C@]3(CC[C@@H]4[C@@](C)(CO)CCC[C@]4(C)C3CC1)C2 (some centres undefined) |  | > 55.7 µM
COC(=O)C1C(O)C(C)C(O)C(C)(O)/C=C/C=C(C)C(=O)Nc2c(C)c(OC(C)=O)c3c(c2O)C(=O)C(C)=C2OCOC(=C23)C(C)=CC(C)(O)C(O)C(C)C1OC(C)=O (centres undefined) | 23.1 µM | 39.8 µM
NC1(c2ccc(-c3nc4ccn5c(=O)[nH]nc5c4cc3-c3ccccc3)cc2)CCC1 | 8.17 µM and > 10 µM and 9.04 µM | 23.2 µM and > 10 µM and 22.6 µM
COc1ccc(NC(=O)CC(=O)NN2C(=O)/C(=C/c3ccc(N(CCC#N)CCC#N)cc3C)N=C2/C=C\c2ccccc2)cc1 |  | > 100 µM
COc1ccc2cc(C(=O)NCCCNC(=O)c3ccc4c(OC)c(OC)ccc4c3)ccc2c1OC |  | > 100 µM
Nc1ncnc2c1ncn2C1OC(CO)C2OC21 (centres undefined) |  | > 100 µM
O=C(O)C1(Cc2ccccc2)Cc2ccccc2C1 |  | > 100 µM
O=C1CC2C=CC1C2CO (centres undefined) |  | > 100 µM
CCOC(=O)/C=C(\C)c1ccc(Cl)cc1 |  | > 100 µM
O=C1CC2(CCC(O)(c3ccco3)C(C(=O)c3ccco3)C2)C(=O)c2ccccc2N1 (centres undefined) |  | > 100 µM
Cc1cccc(-c2cc(=O)c3cc(C)c(C)c(C(=O)O)c3o2)c1 |  | > 100 µM
CC(=O)Nc1ccc(S(=O)(=O)/N=C2\C=CC(=O)c3ccccc32)cc1 |  | 31.3 µM
O=c1cc(O)ccn1C1C=C(CO)C(O)C1O (centres undefined) |  | > 625 µM

SMILES | GI50 | TGI
Cc1ccc(-n2c(=S)[nH]c3ccc(Br)cc3c2=O)cc1 |  | > 100 µM
Nc1nc(CCl)nc(N2CCOCC2)n1 |  | > 100 µM
Cc1cc(NS(=O)(=O)c2ccc(NC(=O)c3ccc(Cl)c4c(Nc5ccc(S(N)(=O)=O)cc5)c5ccccc5nc34)cc2)no1 |  | 37.8 µM
O=C(C1CC1)N1CC[C@@H](Cc2n[nH]c(=O)n2-c2ccc(-c3ccc4occc4c3)cc2)C1 | 45 µM | > 100 µM
O=C1c2ccccc2C(=O)c2c1ccc(O)c2O |  | > 100 µM
Cc1ccc(C2=C(c3ccccc3)C(=O)C(c3ccccc3)=C2c2ccc(C)cc2)cc1 |  | > 100 µM
Nc1nc2c(ncn2C2C=CC(COS(N)(=O)=O)C2)c(=O)[nH]1 (centres undefined) |  | > 100 µM
Cc1cc2nn(C3CCCO3)nc2cc1C (centres undefined) |  | > 100 µM
Cc1c(Cl)ccc2c1NC(=O)C2(O)CC(=O)c1cccc2ccccc12 (centres undefined) |  | > 100 µM
C/C(=C\C(=N\N=C(N)N)c1ccc(Cl)cc1)c1ccc(Cl)cc1 | 1.39 µM | 2.75 µM
COc1ccc2[nH]c(Cl)c(/C=C3/C(=O)N(c4ccccc4)c4ccccc43)c2c1 |  | 76.2 µM
CC1CN=C(c2cccc(-c3ccc(-c4ccccc4)o3)c2)N1 (centres undefined) | 2.83 µM | 8.13 µM
COc1ccc2[nH]c(=O)c(/C=C/C(=O)c3ccccc3OC)cc2c1 | 2.4 µM | 10.4 µM
O=C(O)c1ccccc1/C=C1\Cc2ccccc2C1=O |  | > 100 µM
O=C1OC(CC(=O)c2ccc(Cl)cc2)C(Cl)=C1Cl (centres undefined) |  | > 100 µM
C=C1C(C(O)C[C@H](C)C2O[C@@]3(CCCCO3)CCC2C)O[C@@H]2CCC3(CCC(/C=C/[C@@H](C)C4CC(C)=CC5(O4)O[C@H](C[C@](C)(O)C(=O)O)CCC5O)O3)OC2[C@@H]1O (some centres undefined) | 0.0152 µM | 0.0133 µM
COc1cccc(C=O)c1[O-].COc1cccc(C=O)c1[O-].[Cu+2] |  | 31.8 µM
CCOC(=O)NC(C(F)(F)F)(C(F)(F)F)P(=O)(OCC(C)C)OCC(C)C |  | > 100 µM
C1CCC(C(CC2CCCCN2)C2CCCCC2)CC1 (centres undefined) | 1.63 µM | 3.05 µM
Nc1c(C(=O)c2cccc(-c3ccncc3)c2)cnn1-c1ccc(F)cc1 | > 25 µM | > 25 µM
O=c1[nH]c2ccccc2c(O)c1/C=N/C(=S)NCCc1ccccc1 |  | > 100 µM
